The results in this text go back to the supplement of paper PMC7726561.

In all, about 1,400 sequences were measured (“thermal melting temperature (Tm) of peptide-HLA complex”: median about 60, lowest 2% from about 45 on). This is one part of the list.
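Note: cell lysates heated 10 min at 37–73 °C, remaining pHLA pulled down with pan-class I antibody, peptides quantified by DIA-MS versus 37 °C, Tm where half the complex is lost.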

This test concerns the target HLA-B*07:02. The test is described as follows: thermal melting temperature (Tm) of peptide-HLA complex; higher = more thermostable pHLA complex. The note with it: C1R-B*07:02.
Turning to APRQVLDLEDL, the thermal melting temperature amounted to 60.9 °C. SPIYISRII yielded a thermal melting temperature of 58.8 °C. In the case of FPVLPGSHL it was 61.9 °C; in that of SPNSKVNTL, 58.1 °C. As for IPSSHPVSL, the figure is 56.2 °C; as for LPSPSPRISL, 60.6 °C. Sequence VPDTSRIYVAL gave a thermal melting temperature of 63.3 °C. In the case of KPASVFVQL it was 61.5 °C; in that of IPEVSRAVI, 61.2 °C. As for HPIEGSTTVF, the figure is 51.8 °C; as for QPLARPNTL, 59.2 °C. The sequence HPAAKMIVM showed a thermal melting temperature of 56.4 °C. As for SPRPPLISV, the figure is 62 °C. As for QPLLREVL, the figure is 61.2 °C; as for SPNNPFSRVAL, 58.8 °C; as for MPPSGPRGTL, 53.6 °C. In the case of RPVLWVGV it was 60.8 °C; in that of IPTSARSML, 59.9 °C. With LPAEQRDFL, the thermal melting temperature is 61.5 °C.

Turning to GPIYPGHGM, the thermal melting temperature turned out to be 59.2 °C.

Sequence SPFSSRSPSL yielded a thermal melting temperature of 45.4 °C. As for SPHPGLLLDL, the figure is 57.2 °C; as for APRAPSAL, 53.4 °C; as for TPESGRGAF, 53.7 °C. In the case of VPNQKRLTL it was 61.2 °C; in that of HPISSEELLSL, 58.6 °C.

In turn, SPLQAPTPL had a thermal melting temperature of 62.9 °C.

In turn, LPSILNQL registered a thermal melting temperature of 59.3 °C. In the case of IPRRGEIGL it was 57.6 °C; in that of APAPPTTTTI, 61 °C.

In turn, IARNLTQQL returned a thermal melting temperature of 57.4 °C.

Sequence IPRITIEM yielded a thermal melting temperature of 62.4 °C.

FPHLVHAEL showed a thermal melting temperature of 59.5 °C.

LPHSATVTL returned a thermal melting temperature of 60.7 °C. In the case of VPQESRFNL it was 57.1 °C. As for RPKLPEDPL, the thermal melting temperature was found to be 59.2 °C.
